Sequences and labels used below:
B1: CPEB3 Ribozyme (parent)
chain: UAACAGGGGGCCACAGCAGAAGCGUUCACGUCGCAGCCCCUGUCAGAUUCUGGUGAAUCUGCGAAUUCUGCUGUAUAUCUC

Our source for the self-cleavage values is the RNAGym collection of RNA variant scans (doi:10.1093/nar/gkz1192).

Read counts are not given, so values of variants with three or more changes are uncertain.

In this data set the parent is B1. Kind of data set: self-cleavage, relative activity (ratio to wild type); higher = more cleavage; in vitro, sequencing. In outline: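 For each CPEB3 ribozyme variant, relative activity is its cleaved/total read fraction divided by the unmutated ribozyme's. Barcoded error-prone PCR libraries were transcribed by T7 RNA polymerase (5 hours, 37°C) and held in DNase I for 15 min before an EDTA stop, with cleavage occurring throughout. Template-switching reverse transcription and Illumina sequencing were used to read the RNAs. A 5-read minimum applied, and results are the mean of three batches.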
Take UAACAGGGGGCCACAGCAGAAGCAUUCACGUCGCAGCCCCUGUCAGAUCCUGGUGAACCUGCGAAUUCUGCUGUAUAUCUC [G24A U49C U58C]: the self-cleavage stood at 0.09.
The result for UAACAGGGGGCCACAGCAGAAGCAUUCGCGUCGCAGCCCCUGUCAGAUUCUGGUGAACCUGCGAAUUCUGCUGUAUGUCUC [G24A A28G U58C A77G] reads 0.08.
The result for UAACAGGGGGCCACAGCAGAAGCAUUAACGUCGCAGCCCCUGUCUGAUUCUGGUGAAUCUGCGGAUUCUGCUGUAUAUCUC [G24A C27A A45U A64G] reads 0.05; that for UAACAGGGGGCCACAGCAGAAGCAUUCACGCCGCAGCCCCUGUCAGAUCCUGGUGAACCUGCGAAUUCUGCUGUAUAUCUC [G24A U31C U49C U58C], 0.08.
To UAACAGGGGGCCACAGCAGAAGCAUUCACGUCGCAGCCCCUGUCAGAGUCAGGUGGAUCUGCGAAUUCUGCUGUAUAUCUC [G24A U48G U51A A56G] belongs 0.07; to UAACAGGGGGCCACAGCAGAAGCAUUCACGUCGCAGCCCCUGUCGGAUUCUGGUGAAGCUGCGAAUUCCGCUGUAUAUCUC [G24A A45G U58G U69C], 0.16.
Turning to UAACAGGGGGCCACAGCAGAAGCAUUCACGUCGCAGCCCCUGUCAGAUUCUGGUGAAUUUGCGAAUCCUGCUGAAUAUCUC [G24A C59U U67C U74A], the self-cleavage amounted to 0.08.
Regarding UAACAGGGGGCCACAGCAGAAGCAUUCACGCCGCAGGCCCUGACAGAUUCUGGUGAAUCUGCGAAUUCUGCUGUAUGUCCC [G24A U31C C37G U43A A77G U80C], the self-cleavage is 0.15.
To UAACAGGGGGCCACAGCAGAAGCACUCACGACGCAGCCCCUGUCGGAUUCUGGUGAAUCUGCGAAUUCUGCUGUAUAUCUC [G24A U25C U31A A45G] belongs 0.16; to UAACAGGGGGCCACAGCAGAAGCAUUCACGUCGCAGCCCCCGUCAGAUCCUGGUGAAUCUGCGAAUUCUGCUGUAUAUCUC [G24A U41C U49C], 0.18.
The result for UAACAGGGGGCCACAGCAGAAGCAUUCACGUCGCAGCCCCUGUCUGAUUCUGGUGAAUCUGCGAAUUCUGCUGUUUAUCUC [G24A A45U A75U] reads 0.21; that for UAACAGGGGGCCACAGCAGAAGCAUUCACGUCGCCGCCCCUGUCAGGUUCUGGUGAAUCUGCGAACUCUGCUGUAUAUCUC [G24A A35C A47G U66C], 0.27; that for UAACAGGGGGCCACAGCAGAAGCAUUCACGUCGCAGCCCCUGUCUGAUUCUGGUGAACCUGCGAAUUCUGCUAUAUAUCCC [G24A A45U U58C G73A U80C], 0.11.
On to UAACAGGGGGCCACAGCAGAAGCAUUCACGUCGCAGCCCCUGUCAGAUUCUGGUAAAUCUGCGAAUCCUGCUGUAUAUCUC [G24A G55A U67C], for which the self-cleavage was 0.11.
The result for UAACAGGGGGCCACAGCAGAAGCAUACACGUCGCAGCCCCUGCCAGAUUCUGGUGAAUCUGCGAAUUCUGCUGUAUAUCUC [G24A U26A U43C] reads 0.06; that for UAACAGGGGGCCACAGCAGAAGCAUUCACGUCGCAGCCCCUGUCAGAUUCCGGUGAAUCUGCGAAUUCUGCCGUAUAUCUC [G24A U51C U72C], 0.17.
The result for UAACAGGGGGCCACAGCAGAAGCAUCCACGUCGCAGCCCCAGUCAGAUUCUGGUGAAUCUGCGGAUUCUGCUGUAUAUCUC [G24A U26C U41A A64G] reads 0.17; that for UAACAGGGGGCCACAGCAGAAGCAUUCACGUCGCAGCCCCUGUCUGAUCCUGGUGAAUCUGCGAAUUCUGCUGUAUAUCUC [G24A A45U U49C], 0.22; that for UAACAGGGGGCCACAGCAGAAGCAUUCACGUCGCAGCCCCUGUCAGAUUCCGGUGAACCUGCGAAUUCUGCGGUAUAUCUC [G24A U51C U58C U72G], 0.14.
To UAACAGGGGGCCACAGCAGAAGCAUUCACGUCGCAGCCCCUGUCAGAUCCUGGUGAAUCUGCGGAUUCUGCUAUAUAUCUC [G24A U49C A64G G73A] belongs 0.07.
In the case of UAACAGGGGGCCACAGCAGAAGCACUCACGUCGCAGCCCCUGUCAGAUCCUGGUGAAUCUGCGAAUUCUGCUGUAUAUCUC [G24A U25C U49C], the self-cleavage is 0.09.
Consider UAACAGGGGGCCACAGCAGAAGCAUUCACGUCGCAGCCCCUGUCAGGUCCUGCCGAAUCUGCGAACUCUGCUGUAUAUCUC [G24A A47G U49C G53C U54C U66C], for which the self-cleavage stood at 0.18.
The result for UAACAGGGGGCCACAGCAGAAGCAUUCACGUCGCAGCCCCUGUCAGAUUCUGGUGAAUCUGUGAAUACUGCUGUACAUCUC [G24A C62U U67A U76C] reads 0.11; that for UAACAGGGGGCCACAGCAGAAGCAUUCACGUCGCAGCCCCUGCCAGACUCUGGUGAAUCUGCGAACUCUGCUGAAUAUCUC [G24A U43C U48C U66C U74A], 0.11.
To UAACAGGGGGCCACAGCAGAAGCAAUCACGUCGCAGCCCCUUUCAGAUUCUGGUGAAUCUGCGAAUUCUGCUGUAUAUCUC [G24A U25A G42U] belongs 0.37.
To UAACAGGGGGCCACAGCAGAAGCAUUCACGUCGCAGCCCCUAUCAGAUUCUGGUGAAUCUGCGUAUUCUGCCGUAUAUCUC [G24A G42A A64U U72C] belongs 0.08; to UAACAGGGGGCCACAGCAGAAGCAUUCUCGUCGCUGCCCCUGUCAAACUCUGGUGAGUCUGCGAAUUCUGCUGUAAAUCUC [G24A A28U A35U G46A U48C A57G U76A], 0.04; to UAACAGGGGGCCACAGCAGAAGCAUUCACGUCGCAGCCCCUGUCAGAUUCUGGUGAAGCCGCGAAUUCUGCUGUAUAUCUC [G24A U58G U60C], 0.07.
Regarding UAACAGGGGGCCACAGCAGAAGCAUUCACGUCGCAGCCCCAGCCAGAUUCUGGAGAAUCUGCGACUUAUGCUGUAUAUCUC [G24A U41A U43C U54A A65C C68A], the self-cleavage turned out to be 0.16.
To UAACAGGGGGCCACAGCAGAAGCAUUCACGUCGCAGCCCCUGCCAGACUCUGGUGAAUCUGCGAAUUCUGCUGUAUAUCUC [G24A U43C U48C] belongs 0.34; to UAACAGGGGGCCACAGCAGAAGCAUUCAUGUCGCAGCCCCUGUCAGAUGCUGGUGAAUCCGCGAAUCCUGCUGUAUAUCUC [G24A C29U U49G U60C U67C], 0.05.
Turning to UAACAGGGGGCCACAGCAGAAGCAUUCACGUUGCAGCCCCUGUCAGGUUCUGGUGAAUCUGCAAAUUCUGCUGCAUAUCUC [G24A C32U A47G G63A U74C], the self-cleavage is 0.48.
On to UAACAGGGGGCCACAGCAGAAGCAUUCACGUCGCAGCCCCUGUCAGAUUCUGGUGAAUCUGCGGAUUCUGCCGUAUAUCUC [G24A A64G U72C], for which the self-cleavage was 0.11.
On to UAACAGGGGGCCACAGCAGAAGCAUUCACGCCGCAGCCUCCGUCAGAUUCUGGUGAAUCUGCAAAUUCAGCUGUAUAUCUC [G24A U31C C39U U41C G63A U69A], for which the self-cleavage came to 0.06.
